Experimental data as given in article PMC7519094.
Results are given in words; binding and its absence hold for the method and conditions named. In cells and extracts the contact can be indirect. Some binding calls cover weakened binding; strength is not graded here. Tags and fused reporters may be left off the sequences shown. One block for each binder: values may come before it.

Assays:
[1] = target: T1, LET1-FLAG (C-terminal FLAG-tagged LET1) (Arabidopsis thaliana) (UniProt O22187); test: co-IP; tagged proteins co-expressed in Arabidopsis protoplasts; lysate in 100 mM NaCl, 10 mM HEPES pH 7.5, 0.5% Triton X-100; precipitated with α-FLAG affinity beads at 4 °C for 2 h; immunoblot with α-HA and α-FLAG
T1 sequence: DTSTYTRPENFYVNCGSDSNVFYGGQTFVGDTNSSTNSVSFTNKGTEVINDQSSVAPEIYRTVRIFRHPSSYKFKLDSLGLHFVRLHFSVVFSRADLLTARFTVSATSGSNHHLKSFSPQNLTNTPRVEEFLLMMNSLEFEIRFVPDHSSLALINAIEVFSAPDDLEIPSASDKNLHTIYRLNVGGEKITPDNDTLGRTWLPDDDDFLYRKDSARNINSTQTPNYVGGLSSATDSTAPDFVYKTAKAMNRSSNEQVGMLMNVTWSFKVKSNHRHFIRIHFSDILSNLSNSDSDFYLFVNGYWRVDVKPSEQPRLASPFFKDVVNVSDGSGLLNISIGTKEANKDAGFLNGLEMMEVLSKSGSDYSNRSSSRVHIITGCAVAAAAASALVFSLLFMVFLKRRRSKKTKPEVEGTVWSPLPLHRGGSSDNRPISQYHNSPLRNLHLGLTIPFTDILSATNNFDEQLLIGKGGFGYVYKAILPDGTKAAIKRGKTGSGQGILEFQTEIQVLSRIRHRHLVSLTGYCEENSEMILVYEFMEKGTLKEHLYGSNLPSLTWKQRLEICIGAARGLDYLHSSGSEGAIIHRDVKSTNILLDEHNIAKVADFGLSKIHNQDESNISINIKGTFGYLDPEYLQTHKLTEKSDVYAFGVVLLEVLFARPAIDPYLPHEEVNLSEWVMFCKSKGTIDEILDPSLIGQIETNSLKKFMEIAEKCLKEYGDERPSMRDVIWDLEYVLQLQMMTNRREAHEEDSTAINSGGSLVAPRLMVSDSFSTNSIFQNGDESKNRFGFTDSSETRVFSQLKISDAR

[2] = target: T2, LET1^ECD-FLAG (extracellular malectin-like domains of LET1) (Arabidopsis thaliana) (UniProt O22187); test: as above
T2 sequence: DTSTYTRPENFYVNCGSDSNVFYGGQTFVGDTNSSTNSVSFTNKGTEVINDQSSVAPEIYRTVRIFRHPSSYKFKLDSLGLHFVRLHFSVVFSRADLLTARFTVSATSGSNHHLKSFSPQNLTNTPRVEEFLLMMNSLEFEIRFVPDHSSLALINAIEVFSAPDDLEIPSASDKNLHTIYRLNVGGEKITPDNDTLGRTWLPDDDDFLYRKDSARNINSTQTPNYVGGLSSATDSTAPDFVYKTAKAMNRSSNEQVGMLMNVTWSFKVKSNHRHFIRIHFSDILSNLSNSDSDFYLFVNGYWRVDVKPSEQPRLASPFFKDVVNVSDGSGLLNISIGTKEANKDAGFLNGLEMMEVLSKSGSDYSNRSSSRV

[3] = target: T3, LET2-FLAG (C-terminal FLAG-tagged LET2/MDS1) (Arabidopsis thaliana) (UniProt Q9FID9); test: as above
T3 sequence: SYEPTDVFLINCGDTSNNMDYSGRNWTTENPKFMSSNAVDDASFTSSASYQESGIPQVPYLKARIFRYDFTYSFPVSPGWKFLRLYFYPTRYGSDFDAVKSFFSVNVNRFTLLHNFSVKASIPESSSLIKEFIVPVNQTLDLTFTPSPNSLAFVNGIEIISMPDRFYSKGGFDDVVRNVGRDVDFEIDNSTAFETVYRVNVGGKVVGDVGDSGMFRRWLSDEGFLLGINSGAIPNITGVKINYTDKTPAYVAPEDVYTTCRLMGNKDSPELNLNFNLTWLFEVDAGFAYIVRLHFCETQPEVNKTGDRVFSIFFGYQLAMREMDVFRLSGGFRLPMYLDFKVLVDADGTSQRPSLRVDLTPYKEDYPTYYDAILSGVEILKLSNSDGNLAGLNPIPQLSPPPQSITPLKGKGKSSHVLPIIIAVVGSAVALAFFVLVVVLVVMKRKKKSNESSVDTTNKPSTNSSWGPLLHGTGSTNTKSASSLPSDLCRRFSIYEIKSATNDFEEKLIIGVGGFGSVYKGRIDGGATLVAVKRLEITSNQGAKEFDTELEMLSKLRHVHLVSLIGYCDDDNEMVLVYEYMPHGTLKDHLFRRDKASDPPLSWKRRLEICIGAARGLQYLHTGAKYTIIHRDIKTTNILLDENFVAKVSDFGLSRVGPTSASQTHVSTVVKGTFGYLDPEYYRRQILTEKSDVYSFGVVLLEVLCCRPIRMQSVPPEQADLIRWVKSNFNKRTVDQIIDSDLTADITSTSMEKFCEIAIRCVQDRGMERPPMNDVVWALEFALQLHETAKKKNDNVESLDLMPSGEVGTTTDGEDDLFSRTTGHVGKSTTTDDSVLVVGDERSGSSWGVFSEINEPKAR

BIR2-mCherry = target: T4, BIR2-mCherry (UniProt Q9LSI9); test: FRET or BRET; FRET-FLIM of GFP (donor) and mCherry (acceptor) fusions expressed in Arabidopsis protoplasts for 16 h; GFP fluorescence lifetime, n = 15 protoplasts
T4 sequence: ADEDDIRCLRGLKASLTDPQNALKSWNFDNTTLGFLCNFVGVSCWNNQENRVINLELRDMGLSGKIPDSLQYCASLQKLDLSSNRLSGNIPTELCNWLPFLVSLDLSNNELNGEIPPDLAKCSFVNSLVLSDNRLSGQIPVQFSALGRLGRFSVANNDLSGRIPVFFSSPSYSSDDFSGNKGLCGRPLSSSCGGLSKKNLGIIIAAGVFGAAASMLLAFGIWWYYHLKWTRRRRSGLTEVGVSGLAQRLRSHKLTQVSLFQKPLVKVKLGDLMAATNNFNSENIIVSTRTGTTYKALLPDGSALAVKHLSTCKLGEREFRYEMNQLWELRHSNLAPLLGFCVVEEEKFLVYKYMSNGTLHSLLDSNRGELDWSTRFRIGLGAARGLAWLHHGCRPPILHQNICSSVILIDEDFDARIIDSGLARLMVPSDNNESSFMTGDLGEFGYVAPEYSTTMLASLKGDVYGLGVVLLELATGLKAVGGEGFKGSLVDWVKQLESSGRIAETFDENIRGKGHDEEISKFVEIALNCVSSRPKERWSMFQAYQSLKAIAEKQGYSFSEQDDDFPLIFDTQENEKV

[4] = target: T5, LET2-mCherry (Arabidopsis thaliana) (UniProt Q9FID9); test: as above
T5 sequence: T3 sequence

binding [1]: binds
binding [2]: binds
binding [3]: binds
B1: HA-LLG1 (N-terminal HA-tagged LLG1) (protein, UniProt Q9FKT1 24-144)
chain: SFISDGVFESQSLVLGRNLLQTKKTCPVNFEFMNYTIITSKCKGPKYPPKECCGAFKDFACPYTDQLNDLSSDCATTMFSYINLYGKYPPGLFANQCKEGKEGLECPAGSQLPPETSAEVN

binding (BIR2-mCherry): no binding
binding [4]: binds
B2: LET1-GFP (receptor, UniProt O22187 29-834)
chain: T1 sequence
